# Source: PubChem BioAssay AID686979 (National Center for Advancing Translational Sciences (NCATS), 2013)
# Among all 420,000 compounds or so, about 50,000 (12%) were called active. Inconclusive means that the source gave no clear call. Such entries were picked first, then a sample of the others. The call rests on the fitted dose curve; in most records, active means well fitted inhibition curve with a large enough effect; inconclusive means small, poorly fitted or top-dose-only effect; inactive means flat fitted curve, though single readings scatter. No potency is given beside an inconclusive call; the fits are too rough.
# Experiment: qHTS for Inhibitors of human tyrosyl-DNA phosphodiesterase 1 (TDP1): qHTS in cells in presence of CPT; further: nearly all actives have a fitted effect of over 55% in size
# Settings: chicken DT40 Tdp1-/-;hTDP1 cells + 20 nM CPT, ATP luminescence, 48 h; activity change, negative = growth inhibition: at 46.2 µM (top of the series) unless noted
# Procedure, shortened: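 Chicken DT40 Tdp1-/- cells stably complemented with human TDP1 were seeded at 400 cells/well in medium containing 20 nM camptothecin, exposed to pin-transferred compounds, and grown at 37 °C for at least 48 hr. Viability was read as ATP luminescence.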
# On the % scale 0 is the no-effect control and ±100 the full control effect; potency means the concentration at half of the fitted maximal effect; tags describe the fitted curve by direction and shape.
Structure (SMILES),"activity change, negative = growth inhibition",Potency
O=C1N(c2ccc(Cl)cc2)C(c2ccc(Cl)cc2)N2CCCN12 (stereo not given),inactive: 8.43%,
COc1ccc(Cc2[nH]n3c(=O)c(Cl)c(C)nc3c2-c2ccccc2)cc1,,"inconclusive [inhibitor, single point]"
COc1cc(OC)nc(Oc2ccccc2C(=O)Oc2ccc(F)cc2Cl)n1,,"inconclusive [inhibitor, single point]"
O=C(/C=C/c1ccc2c(c1)S(=O)(=O)N(Cc1ccccc1)[C@H]2CC(=O)N1CCOCC1)N1CCOCC1,,"inconclusive [inhibitor, single point]"
COc1ccccc1N(C(=O)CN1C(=O)c2ccccc2S1(=O)=O)C(C(=O)NCC1CCCO1)c1ccc(F)cc1 (stereo not given),,"inconclusive [inhibitor, single point]"
C[C@H](NC(=O)c1ncn2c1c(=O)[nH]c1ccc(Br)cc12)c1ccccc1,,"inconclusive [inhibitor, single point]"
CCc1ccccc1S(=O)(=O)Cc1ccc(C(=O)NCc2cccs2)o1,,active: 18.4 µM
Cc1ccc(C)c(NC(=O)C2CCCN(c3cnccn3)C2)c1 (stereo not given),inactive: -20.2%,
Cc1cccn2c(=O)c(/C=C(\C#N)C(=O)NC3CCS(=O)(=O)C3)c(N3CCC(C)CC3)nc12 (stereo not given),,"inconclusive [inhibitor, single point]"
CC(C)/C(=N/Nc1ccccc1[N+](=O)[O-])c1ccccc1,,"inconclusive [inhibitor, single point]"
CC(=O)c1ccc(S(=O)(=O)NCCC(=O)NCCc2c[nH]c3ccccc23)cc1,,"inconclusive [inhibitor, single point]"
C#CCOc1coc(COC(=O)c2ccccc2)cc1=O,inconclusive: -32.4% [inhibitor],
c1ccc(Nc2ncnc3ccc(-c4cccnc4)cc23)cc1,,"inconclusive [inhibitor, single point]"
CCCCC(=O)N=c1sc2c(OC)ccc(OC)c2n1C,,"inconclusive [inhibitor, single point]"
O=C(/C=C/c1ccc(S(=O)(=O)N2CCOCC2)cc1)N1CCN(c2ccccc2)CC1,,active: 11.6 µM
COc1ccccc1CNc1ccc([N+](=O)[O-])cc1C,,"inconclusive [inhibitor, single point]"
O=C(Nc1cc2c3c(c1)CC(=O)N3CCC2)c1ccc(Br)o1,,"inconclusive [inhibitor, single point]"
Cc1nc(-c2cc(C#N)c(Sc3cccc(C(F)(F)F)c3)nc2C)cs1,,"inconclusive [inhibitor, single point]"
O=CC(=O)c1ccccc1,,"inconclusive [inhibitor, single point]"
CCOC(=O)C(=Cc1ccc(OCc2ccc([N+](=O)[O-])cc2)c(OC)c1)C(=O)OCC,,active: 13 µM
CCN(C)C1CN(Cc2cn(Cc3ccc(C(F)(F)F)cc3)nn2)S(=O)(=O)C1 (stereo not given),inactive: -8.55%,
CSCCC(NC(=O)c1ccco1)C(=O)Nc1ccncc1 (stereo not given),inactive: 3.33%,
O=C(CSc1nnc(-c2ccco2)n1Cc1ccccc1)OC1CCCCC1,inactive: -29.2%,

Structure (SMILES),"activity change, negative = growth inhibition",Potency
O=S(=O)(/C(=C/c1ccc(C(F)(F)F)cc1)c1nc2ccccc2[nH]1)c1ccccc1,,active: 2.59 µM
CCOC(=O)c1nn(-c2ccc(C)cc2)c(C)c1C(C)=O,inactive: -2.75%,
CCc1ccc2[nH]c(=O)c(CN(Cc3nnnn3C3CCCC3)C3CCCCC3)cc2c1,,"inconclusive [inhibitor, single point]"
CCCS(=O)(=O)N1CCCC(C(=O)Nc2ccc3c(c2)CCC3)C1 (stereo not given),,"inconclusive [inhibitor, single point]"
Cc1coc2cc3oc(=O)c(CC(=O)NCc4ccc(F)cc4)c(C)c3cc12,,active: 6.51 µM
CSc1ncc(CN2CCC(C(=O)Nc3cccc(-c4cscn4)c3)CC2)cn1,,"inconclusive [inhibitor, single point]"
COc1cc(-c2nc3sccn3c2Nc2cccc(C)c2)ccc1O,,"inconclusive [inhibitor, single point]"
Cc1nc(-c2ccc(Cl)cc2)sc1CCNC(=O)c1ccco1,,active: 20.6 µM
C[C@H](CO)N1C[C@H](C)[C@@H](CN(C)Cc2cccc3c2OCCCO3)OCc2cnnn2CCCC1=O,inactive: -36.2%,
Cn1cnc2cc(NCc3ccc(Cl)cc3)ccc21,,"inconclusive [inhibitor, single point]"
COc1ccc(-c2sc3cc(OC)c(OC)cc3c2C#CCCO)cc1,,"inconclusive [inhibitor, single point]"
CC(C)OC(=O)c1c(F)c(F)c(N2CCOCC2)c(F)c1F,inactive: -8.69%,
CCOC(=O)C1CCN(c2c(C(=O)c3ccccc3)cnc3ccc(CC)cc23)CC1,,"inconclusive [inhibitor, single point]"
COc1ccccc1OCCCn1c(C2CC(=O)N(c3ccccc3Cl)C2)nc2ccccc21 (stereo not given),,active: 13 µM
CCC(C)n1cnc2c(c1=O)c1nc3ccccc3nc1n2-c1ccc2c(c1)OCCO2 (stereo not given),,"inconclusive [inhibitor, single point]"
CC(=O)N1CCCN(C(=O)c2ccc3nc(Cc4cccc(Cl)c4)oc3c2)CC1,inconclusive: -33.3% [inhibitor],
CCOc1ccc(NC(=O)CCC(=O)Nc2nnc(CC)s2)cc1,inactive: 2.52%,
C/C(=N\Nc1nc2ccccc2s1)c1ccc2c(c1)OCO2,,"inconclusive [inhibitor, partial curve]"
CCOC1=C2CN(S(=O)(=O)c3ccc(C)cc3)C(c3ccc(C)cc3)CC2N(S(=O)(=O)c2ccc(C)cc2)C(c2ccccc2)C1 (stereo not given),,"inconclusive [inhibitor, partial curve]"
COc1ccc(CC(N)c2csc(NC(=O)c3cc(C(C)(C)C)oc3C)n2)cc1 (stereo not given),,active: 23.1 µM
CSc1cccc(NC(=O)CN(c2ccc(C)cc2C)S(C)(=O)=O)c1,inactive: -10.1%,
C[C@@H]1CN([C@H](C)CO)C(=O)CCCn2cc(nn2)CO[C@H]1CN(C)S(=O)(=O)c1ccc(C#N)cc1,inactive: -8.34%,
